# Some of the results follow. The full chains were built here from the parent and the listed change. Inactive controls read about 0.05.
# B1: TEV protease; numbered along this chain (parent)
# chain: MGESLFKGPRDYNPISSSICHLTNESDGHTTSLYGIGFGPFIITNKHLFRRNNGTLVVQSLHGVFKVKDTTTLQQHLVDGRDMIIIRMPKDFPPFPQKLKFREPQREERICLVTTNFQTKSMSSMVSDTSCTFPSGDGIFWKHWIQTKDGQCGSPLVSTRDGFIVGIHSASNFTNTNNYFTSVPKNFMELLTNQEAQQWVSGWRLNADSVLWGGHKVFMVKPEEPFQPVKEATQL
# Variants of: B1
# Assay: raw area under fraction-flipped curve 0-4 h after induction (AUC4h, not background-subtracted), DNA-recorder readout of cleavage of the substrate (dimensionless); higher = more cleavage of the substrate by the protease variant
# Conditions: temperature: 34 °C; time window: 0-4 h after rhamnose induction
# Description: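 In vivo DNA recorder in E. coli TOP10(DE3) ΔrhaA at 34 °C. Each TEVp single-site mutant (parent TEVp 0) is paired with a single-site variant of the 7-mer TEVs (canonical ENLYFQ|S). The substrate sits between flexible linkers in a Bxb1-sfGFP-TEVs-SsrA fusion, so cleavage stabilises Bxb1 and speeds flipping of a recombination array, read by NGS. The value is the raw area under the fraction-flipped curve over 0-4 h after rhamnose induction (AUC4h), with ≥20 reads per time point. It is not background-subtracted; inactive controls average about 0.047.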
# 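Also: Bxb1 expression induced with 0.2% (w/v) L-rhamnose at OD600 near 0.5, cultures sampled hourly, flipped fraction per protease–substrate barcode pair counted by paired-end Illumina sequencing.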
Variant,area with substrate EALYFQS,area with substrate EDLYFQS,area with substrate EELYFQS,area with substrate EHLYFQS,area with substrate EILYFQS,area with substrate ERLYFQS,area with substrate ESLYFQS,area with substrate EVLYFQS,area with substrate EKLYFQS,area with substrate EMLYFQS
MGESLFKGPRDYNPISSSICHLTNESDGHTTSLYGIGFGPFIITNKHLFRRNNGTLVVQSLHGVFKVKDTTTLQQHLVDGRDMIIIRMPKDFPPFPQKLKFREPQREERICLVTTNFQTKSMSSMVSDTSCTFPSGDGIFWKHWIQTKDGQCGSPLVSTRDGFIVGIHSASNFTNTNNYFTSVPKNFMELLTNAEAQQWVSGWRLNADSVLWGGHKVFMVKPEEPFQPVKEATQL [Q194A],0.178,0.139,0.121,0.176,0.0943,0.117,0.104,0.101,–,–
MGESLFKGPRDYNPISSSICHLTNESDGHTTSLYGIGFGPFIITNKHLFRRNNGTLVVQSLHGVFKVKDTTTLQQHLVDGRDMIIIRMPKDFPPFPQKLKFREPQREERICLVTTNFQTKSMSSMVSDTSCTFPSGDGIFWKHWIQTKDGQCGSPLVSTRDGFIVGIHSASNFTNTNNYFTSVPKNFMELLTNQEARQWVSGWRLNADSVLWGGHKVFMVKPEEPFQPVKEATQL [Q197R],0.115,–,–,–,0.0596,–,0.0831,–,0.108,0.0885
MGESLFKGPRDYNPISSSICHLTNESDGHTTSLYGIGFGPFIITNKHLFRRNNGTLVVQSLHGVFKVKDTTTLQQHLVDGRDMIIIRMPKDFPPFPQKLKFREPQREERICLVTTNFQTKSMSSMVSDTSCTFPSGDGIFWKHWIQTKDGQCGSPLVSTRDGFIVGIHSASNFTNTNNYFTSVPKNFMELLTNQEAQSWVSGWRLNADSVLWGGHKVFMVKPEEPFQPVKEATQL [Q198S],0.134,–,–,0.107,0.0783,0.0893,0.112,0.0951,0.107,0.121
MGESLFKGPRDYNPISSSICHLTNESDGHTTSLYGIGFGPFIITNKHLFRRNNGTLVVQSLHGVFKVKDTTTLQQHLVDGRDMIIIRMPKDFPPFPQKLKFREPQREERICLVTTNFQTKSMSSMVSDTSCTFPSGDGIFWKHWIQTKDGQCGSPLVSTRDGFIVGIHSASNFTNTNNYFTSVPKNFMELLTNQEAQQYVSGWRLNADSVLWGGHKVFMVKPEEPFQPVKEATQL [W199Y],0.0584,–,–,0.0456,0.0768,0.0652,–,–,0.0584,–
MGESLFKGPRDYNPISSSICHLTNESDGHTTSLYGIGFGPFIITNKHLFRRNNGTLVVQSLHGVFKVKDTTTLQQHLVDGRDMIIIRMPKDFPPFPQKLKFREPQREERICLVTTNFQTKSMSSMVSDTSCTFPSGDGIFWKHWIQTKDGQCGSPLVSTRDGFIVGIHSASNFTNTNNYFTSVPKNFMELLTNQEAQQWDSGWRLNADSVLWGGHKVFMVKPEEPFQPVKEATQL [V200D],0.102,–,0.0626,–,–,–,0.0751,–,0.0821,–
MGESLFKGPRDYNPISSSICHLTNESDGHTTSLYGIGFGPFIITNKHLFRRNNGTLVVQSLHGVFKVKDTTTLQQHLVDGRDMIIIRMPKDFPPFPQKLKFREPQREERICLVTTNFQTKSMSSMVSDTSCTFPSGDGIFWKHWIQTKDGQCGSPLVSTRDGFIVGIHSASNFTNTNNYFTSVPKNFMELLTNQEAQQWVNGWRLNADSVLWGGHKVFMVKPEEPFQPVKEATQL [S201N],0.111,–,–,0.0797,0.0928,0.103,0.0984,0.0806,0.0708,0.121
MGESLFKGPRDYNPISSSICHLTNESDGHTTSLYGIGFGPFIITNKHLFRRNNGTLVVQSLHGVFKVKDTTTLQQHLVDGRDMIIIRMPKDFPPFPQKLKFREPQREERICLVTTNFQTKSMSSMVSDTSCTFPSGDGIFWKHWIQTKDGQCGSPLVSTRDGFIVGIHSASNFTNTNNYFTSVPKNFMELLTNQEAQQWVSGWDLNADSVLWGGHKVFMVKPEEPFQPVKEATQL [R204D],0.123,–,0.118,–,0.0857,0.099,0.103,0.0885,0.103,–
MGESLFKGPRDYNPISSSICHLTNESDGHTTSLYGIGFGPFIITNKHLFRRNNGTLVVQSLHGVFKVKDTTTLQQHLVDGRDMIIIRMPKDFPPFPQKLKFREPQREERICLVTTNFQTKSMSSMVSDTSCTFPSGDGIFWKHWIQTKDGQCGSPLVSTRDGFIVGIHSASNFTNTNNYFTSVPKNFMELLTNQEAQQWVSGWRLRADSVLWGGHKVFMVKPEEPFQPVKEATQL [N206R],0.11,–,–,–,–,–,0.0887,0.0456,0.0839,0.0947
MGESLFKGPRDYNPISSSICHLTNESDGHTTSLYGIGFGPFIITNKHLFRRNNGTLVVQSLHGVFKVKDTTTLQQHLVDGRDMIIIRMPKDFPPFPQKLKFREPQREERICLVTTNFQTKSMSSMVSDTSCTFPSGDGIFWKHWIQTKDGQCGSPLVSTRDGFIVGIHSASNFTNTNNYFTSVPKNFMELLTNQEAQQWVSGWRLNADEVLWGGHKVFMVKPEEPFQPVKEATQL [S209E],0.129,–,0.148,–,–,–,0.109,0.0984,0.129,–

# Same assay, conditions: temperature: 34 °C; time window: 0-4 h after rhamnose induction
Variant,area with substrate EQLYFQS,area with substrate ELLYFQS,area with substrate ETLYFQS,area with substrate EYLYFQS,area with substrate EWLYFQS,area with substrate EGLYFQS,area with substrate EPLYFQS
MGESLFKGPRDYNPISSSICHLTNESDGHTTSLYGIGFGPFIITNKHLFRRNNGTLVVQSLHGVFKVKDTTTLQQHLVDGRDMIIIRMPKDFPPFPQKLKFREPQREERICLVTTNFQTKSMSSMVSDTSCTFPSGDGIFWKHWIQTKDGQCGSPLVSTRDGFIVGIHSASNFTNTNNYFTSVPKNFMELLTNQEARQWVSGWRLNADSVLWGGHKVFMVKPEEPFQPVKEATQL [Q197R],0.0898,–,–,–,–,–,–
MGESLFKGPRDYNPISSSICHLTNESDGHTTSLYGIGFGPFIITNKHLFRRNNGTLVVQSLHGVFKVKDTTTLQQHLVDGRDMIIIRMPKDFPPFPQKLKFREPQREERICLVTTNFQTKSMSSMVSDTSCTFPSGDGIFWKHWIQTKDGQCGSPLVSTRDGFIVGIHSASNFTNTNNYFTSVPKNFMELLTNQEAQSWVSGWRLNADSVLWGGHKVFMVKPEEPFQPVKEATQL [Q198S],0.11,0.0675,0.131,0,–,–,–
MGESLFKGPRDYNPISSSICHLTNESDGHTTSLYGIGFGPFIITNKHLFRRNNGTLVVQSLHGVFKVKDTTTLQQHLVDGRDMIIIRMPKDFPPFPQKLKFREPQREERICLVTTNFQTKSMSSMVSDTSCTFPSGDGIFWKHWIQTKDGQCGSPLVSTRDGFIVGIHSASNFTNTNNYFTSVPKNFMELLTNQEAQQYVSGWRLNADSVLWGGHKVFMVKPEEPFQPVKEATQL [W199Y],–,–,0.0829,–,0.0457,–,–
MGESLFKGPRDYNPISSSICHLTNESDGHTTSLYGIGFGPFIITNKHLFRRNNGTLVVQSLHGVFKVKDTTTLQQHLVDGRDMIIIRMPKDFPPFPQKLKFREPQREERICLVTTNFQTKSMSSMVSDTSCTFPSGDGIFWKHWIQTKDGQCGSPLVSTRDGFIVGIHSASNFTNTNNYFTSVPKNFMELLTNQEAQQWDSGWRLNADSVLWGGHKVFMVKPEEPFQPVKEATQL [V200D],–,0.0525,–,–,–,0.0878,0.0604
MGESLFKGPRDYNPISSSICHLTNESDGHTTSLYGIGFGPFIITNKHLFRRNNGTLVVQSLHGVFKVKDTTTLQQHLVDGRDMIIIRMPKDFPPFPQKLKFREPQREERICLVTTNFQTKSMSSMVSDTSCTFPSGDGIFWKHWIQTKDGQCGSPLVSTRDGFIVGIHSASNFTNTNNYFTSVPKNFMELLTNQEAQQWVNGWRLNADSVLWGGHKVFMVKPEEPFQPVKEATQL [S201N],–,0.0861,0.0467,0.106,0.0863,0.0783,–
MGESLFKGPRDYNPISSSICHLTNESDGHTTSLYGIGFGPFIITNKHLFRRNNGTLVVQSLHGVFKVKDTTTLQQHLVDGRDMIIIRMPKDFPPFPQKLKFREPQREERICLVTTNFQTKSMSSMVSDTSCTFPSGDGIFWKHWIQTKDGQCGSPLVSTRDGFIVGIHSASNFTNTNNYFTSVPKNFMELLTNQEAQQWVSGWDLNADSVLWGGHKVFMVKPEEPFQPVKEATQL [R204D],0.0929,–,–,0.0722,0.102,–,0.0909
MGESLFKGPRDYNPISSSICHLTNESDGHTTSLYGIGFGPFIITNKHLFRRNNGTLVVQSLHGVFKVKDTTTLQQHLVDGRDMIIIRMPKDFPPFPQKLKFREPQREERICLVTTNFQTKSMSSMVSDTSCTFPSGDGIFWKHWIQTKDGQCGSPLVSTRDGFIVGIHSASNFTNTNNYFTSVPKNFMELLTNQEAQQWVSGWRLRADSVLWGGHKVFMVKPEEPFQPVKEATQL [N206R],0.0872,0.0774,–,0.08,–,0.0611,–
MGESLFKGPRDYNPISSSICHLTNESDGHTTSLYGIGFGPFIITNKHLFRRNNGTLVVQSLHGVFKVKDTTTLQQHLVDGRDMIIIRMPKDFPPFPQKLKFREPQREERICLVTTNFQTKSMSSMVSDTSCTFPSGDGIFWKHWIQTKDGQCGSPLVSTRDGFIVGIHSASNFTNTNNYFTSVPKNFMELLTNQEAQQWVSGWRLNADEVLWGGHKVFMVKPEEPFQPVKEATQL [S209E],–,0.111,–,–,0.115,0.0658,–
